Screen size: about 270,000 compounds; about 5,800 (2.1%) were called active. The shares of active, inactive and inconclusive entries below differ from those in the screen. The call rests on the fitted dose curve; in most records, active means well fitted inhibition curve with a large enough effect; inconclusive means small, poorly fitted or top-dose-only effect; inactive means flat fitted curve, though single readings scatter. Potencies beside an inconclusive call are fits to weak or partial responses and may not hold up.
Target: Microtubule-associated protein tau (Homo sapiens) (UniProt P10636)
Sequence of UniProt P10636 (P10636 whole entry, looked up): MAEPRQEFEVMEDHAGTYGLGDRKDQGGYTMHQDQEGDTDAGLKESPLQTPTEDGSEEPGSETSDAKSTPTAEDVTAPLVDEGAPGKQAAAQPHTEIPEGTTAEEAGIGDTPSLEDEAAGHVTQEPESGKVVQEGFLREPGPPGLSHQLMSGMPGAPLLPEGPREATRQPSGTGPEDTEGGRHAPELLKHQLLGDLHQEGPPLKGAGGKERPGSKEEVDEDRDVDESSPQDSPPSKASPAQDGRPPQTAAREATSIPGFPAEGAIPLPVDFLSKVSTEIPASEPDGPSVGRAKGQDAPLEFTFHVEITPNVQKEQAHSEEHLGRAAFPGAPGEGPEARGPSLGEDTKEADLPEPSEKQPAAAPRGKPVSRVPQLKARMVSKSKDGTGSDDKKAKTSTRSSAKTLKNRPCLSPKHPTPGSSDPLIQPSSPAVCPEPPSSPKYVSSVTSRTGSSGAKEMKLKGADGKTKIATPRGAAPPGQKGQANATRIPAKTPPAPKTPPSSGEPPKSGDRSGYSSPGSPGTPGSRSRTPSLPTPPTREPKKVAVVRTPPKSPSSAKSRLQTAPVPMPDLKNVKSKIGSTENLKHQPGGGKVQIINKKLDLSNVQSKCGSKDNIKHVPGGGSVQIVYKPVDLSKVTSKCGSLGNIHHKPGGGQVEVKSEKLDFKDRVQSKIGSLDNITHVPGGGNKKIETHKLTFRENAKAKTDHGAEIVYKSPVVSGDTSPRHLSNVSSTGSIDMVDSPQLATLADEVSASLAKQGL
Test: qHTS for Inhibitors of Tau Fibril Formation, Thioflavin T Binding; further: nearly all actives have a fitted effect of over 55% in size
Details: recombinant tau K18 P301L (four-repeat tau fragment), heparin-induced fibrillization, ThT fluorescence; series mostly up to 57.4 µM
How it was run: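 Heparin-induced fibrillization of the P301L-mutant K18 repeat-domain fragment of human tau was followed by ThT binding in quantitative high-throughput format.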
On the % scale 0 is the no-effect control and ±100 the full control effect; potency means the concentration at half of the fitted maximal effect; tags describe the fitted curve by direction and shape.

| SMILES | Potency | activity, negative = inhibition |
| --- | --- | --- |
| CC(=O)Nc1ccc(S(=O)(=O)NCc2ccc3c(c2)cc(C)n3C)cc1 | inconclusive: 17.8 µM [inhibitor, partial curve] |  |
| CCCCCOC(=O)CCN1C(=O)/C(=C2\SC(=S)N(CCC(=O)OCCCCC)C2=O)SC1=S | inconclusive: 20 µM [inhibitor, partial curve] |  |
| CC1Cn2c(nnc2C23CC4CC(CC(C4)C2)C3)S1 (stereo not drawn) | inactive |  |
| O=C(NNc1nc(-c2ccccc2)cs1)c1ccccc1 | inconclusive: 14.1 µM [inhibitor, partial curve] |  |
| Cc1ccccc1CNC(=O)Cn1cc2c(n1)-c1c(oc(C(=O)N3CCCC3)c1C)CC2 | inconclusive: 25.1 µM [inhibitor, partial curve] |  |
| Clc1ccc(N2CCN(c3cnc4ccccc4n3)CC2)cc1 | inconclusive: 8.91 µM [inhibitor, partial curve] |  |
| CCC(CC)c1nn2c(N)c(/C=C3\C(C)=Nc4ccccc43)c(=O)nc2s1 | inconclusive: 22.4 µM [inhibitor, partial curve] |  |
| Cc1ccc(NC(=O)CN2C(=O)COc3ccc(S(=O)(=O)N4CCOCC4)cc32)c(Cl)c1 | inactive |  |
| CCCN1C2CCCC1CC(NC(=O)Nc1cccc(C(C)=O)c1)C2 (stereo not drawn) | inactive |  |
| O=C(c1ccco1)N1CCN(c2ncnc3c(-c4ccccc4)nsc23)CC1 | inconclusive: 3.16 µM [inhibitor, full curve] |  |
| Cc1ccccc1NCC(=O)c1ccc(Br)cc1 | inconclusive: 20 µM [inhibitor, partial curve] |  |
| CC1=CC(C)(C)n2c(O)c(N=NC(N)=S)c3cc(C)cc1c32 | inactive |  |
| O=[N+]([O-])c1ccc(NC(=S)NCCc2ccc(F)cc2)cc1 | inconclusive: 28.2 µM [inhibitor, partial curve] |  |
| COc1cc(N2CCCC2)c(OC)cc1/C=c1/sc2nc3ccccc3n2c1=O | inconclusive: 5.62 µM [inhibitor, full curve] |  |
| CCCCOc1ccc(/C=N/NC(=S)Nc2cccc(C)c2C)cc1 | inconclusive: 3.55 µM [inhibitor, single point] |  |
| O=C(CSc1nnc(-c2ccncc2)o1)c1cccc([N+](=O)[O-])c1 | inconclusive: 28.2 µM [inhibitor, single point] |  |
| Nc1cc(OC(=O)c2ccco2)nn1S(=O)(=O)c1ccc(F)cc1 | inconclusive: 8.91 µM [inhibitor, partial curve] |  |
| CSC1=NSC2=NC(=O)/C(=C/c3coc4ccccc4c3=O)C(=N)N12 | active: 17.8 µM |  |
| Nc1ccccc1C(=O)NNC(=O)C(=O)/C=C(\O)c1ccccc1 | inconclusive: 20 µM [inhibitor, partial curve] |  |
| C/C(CCN1CCCCc2nc(C)c(C)cc21)=N\O[C@@H](C)c1cc(-c2c(C)cc(C)cc2C)no1 |  | inactive: -17.2% [at 11.5 µM] |
| CN1CCc2cc(NC(=O)Nc3cccnc3)ccc21 | inconclusive: 20 µM [inhibitor, partial curve] |  |
| COc1cc(Cl)c(NC(=O)CN(C)S(=O)(=O)c2ccc3[nH]c4c(c3c2)CCCC4)c(OC)c1 | inactive |  |

| SMILES | Potency | activity, negative = inhibition |
| --- | --- | --- |
| COc1cc(Br)cc(/C=N/NC(=O)Cc2ccc(C(F)(F)F)cc2[N+](=O)[O-])c1O | inconclusive: 7.94 µM [inhibitor, partial curve] |  |
| Cc1ccc(S(=O)(=O)C(C#N)c2nc3ccccc3nc2N2CC(C)OC(C)C2)cc1C (stereo not drawn) | inconclusive: 31.6 µM [inhibitor, single point] |  |
| Cn1cccc1CC(=O)N/N=C/c1ccc([N+](=O)[O-])cc1 | inconclusive: 15.8 µM [inhibitor, partial curve] |  |
| COc1ccc(/C=N/Nc2nnc(C)n2N)cc1OC | active: 28.2 µM |  |
| Cc1cccc(C(=O)Nc2sc3c(c2C(=O)O)CCCC3)c1 | inconclusive: 25.1 µM [inhibitor, partial curve] |  |
| CC(=O)c1c(C)oc2ccc(N(C(=O)c3ccncc3)S(=O)(=O)c3ccc(F)cc3C)cc12 | inconclusive: 10 µM [inhibitor, partial curve] |  |
| CCOc1cc(/C=C2\SC(=O)N=C2N)ccc1O | inconclusive: 11.2 µM [inhibitor, partial curve] |  |
| O=C(CS(=O)(=O)c1cn(Cc2ccc(Cl)cc2)c2ccccc12)N1CCCCC1 | inactive |  |
| Cc1ccc(-n2ncc3c2ncn2c(-c4ccncc4)nnc32)cc1 | inconclusive: 3.16 µM [inhibitor, full curve, poor fit] |  |
| Cc1cc(C(=O)CSCCCn2c(=O)[nH]c3ccccc32)c(C)n1C | inconclusive: 28.2 µM [inhibitor, partial curve] |  |
| O=[N+]([O-])c1cccc(C2NCC(c3ccccc3Cl)c3c2[nH]c2ccccc32)c1 (stereo not drawn) | inconclusive: 44.7 µM [inhibitor, single point] |  |
| O=C(c1cnc2nc3ccccc3n2c1)c1cc(F)ccc1O | inconclusive: 15.8 µM [inhibitor, partial curve] |  |
| Cc1ccc(C)c(/C(O)=C2/C(=O)C(=O)N(CCN3CCOCC3)C2c2ccc(C)o2)c1 (stereo not drawn) | inconclusive: 17.8 µM [inhibitor, partial curve] |  |
| COc1ccc([C@H]2[C@H](C(=O)OC(C)(C)C)N3N=Cc4ccccc4C3C23C(=O)c2ccccc2C3=O)c(OC)c1 (stereo partly drawn) | inconclusive: 28.2 µM [inhibitor, single point] |  |
| Nc1nc(CN2CCN(c3ccccc3F)CC2)nc(N2CCCc3ccccc32)n1 | inconclusive: 31.6 µM [inhibitor, single point] |  |
| COc1ccccc1-c1ccnc2c(-c3ccc(Br)cc3)c(C)nn12 | inactive |  |
| COc1cc(/C=C(\C#N)C(=O)c2ccc(O)c(O)c2)cc(I)c1O | active: 8.91 µM |  |
| COc1cc(-c2nc3cnccn3c2Nc2ccc(C(C)C)cc2)ccc1O | inactive |  |
| O=C(CSc1n[nH]c(-c2ccccc2)n1)NCCc1ccccc1 | inactive |  |
| COc1ccc(C(=O)/C=C/c2cc(OC)c(O)c(OC)c2)c(F)c1 | inactive |  |
| COc1cccc(N2CCN(C(=O)Cn3ncc4c(=O)oc5ccccc5c43)CC2)c1 | inconclusive: 8.91 µM [inhibitor, full curve, poor fit] |  |
